# About 4,000 (4.3%) of roughly 94,000 compounds were called active. The inconclusive results got no clear call from the source; some entries with a clear call stand among them for comparison. The call rests on the fitted dose curve; in most records, active means well fitted inhibition curve with a large enough effect; inconclusive means small, poorly fitted or top-dose-only effect; inactive means no such curve, though single readings can be large or run the other way. Potencies beside an inconclusive call are fits to weak or partial responses and may not hold up.
# Assay: Cytotoxic Profiling in NIH 3T3 Cell Line of Diverse Libraries Using Quantitative High-Throughput Screening; further: nearly all actives have a fitted effect of over 55% in size
# Conditions: NIH 3T3 viability, CellTiter-Glo ATP luminescence, 48-72 h; activity change, negative = cytotoxicity: at 96.7 µM (top of the series) unless noted; series mostly up to 96.7 µM
# Summary of the method: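 ATP-dependent luminescence (CellTiter-Glo) served as the viability signal for NIH 3T3 cells treated with compound for 48 or 72 hr at 37 °C.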
# On the % scale 0 is the no-effect control and ±100 the full control effect; potency means the concentration at half of the fitted maximal effect; tags describe the fitted curve by direction and shape.
Structure (SMILES),"activity change, negative = cytotoxicity",Potency,outcome
Cc1cn2nc(C(=O)N3CCC(NC(=O)c4sccc4C)CC3)cc2c(=O)[nH]1,inactive: -20.8%,–,–
COc1ccc(C(=O)N[C@H]2C[C@H]3C(=O)Nc4cc(Cl)ccc4C(=O)N3C2)cc1,–,"inconclusive: 126 µM [inhibitor, single point]",–
COC(=O)c1ccc(NCC2=CC(C)(C)COc3ccc(OC)cc32)cc1,–,"inconclusive: 20 µM [inhibitor, full curve, poor fit]",–
CC(Oc1ccccc1)C(=O)Nc1cnc(-c2cccc(Cl)c2)nc1 (configuration not stated),–,"inconclusive: 50.1 µM [inhibitor, partial curve, poor fit]",–
N#Cc1ccc(C(=O)NC2CCN(c3cc(-c4ccc(Cl)cc4)[nH]n3)C2)cc1 (configuration not stated),–,"inconclusive: 50.1 µM [inhibitor, partial curve, poor fit]",–
Cc1nn(C)c(C)c1CN(Cc1ccc2c(C)cc(=O)oc2c1)C1CC1,–,"inconclusive: 20 µM [inhibitor, full curve]",–
N#Cc1cccc(CN2CCC3(CC2)CC(Cc2nc(C4CC4)no2)CCO3)c1 (configuration not stated),–,"inconclusive: 50.1 µM [inhibitor, partial curve, poor fit]",–
O=C(Nc1cc(-c2ccccn2)nn1-c1ccccc1)C1CC1,inactive: -9.08% [at 138 µM],–,–
COc1ccc(NC(=O)[C@@H]2C[C@@H](c3ccc(F)cc3)N([S+](=O)([O-])c3ccccc3)C2)cc1,–,"inconclusive: 39.8 µM [inhibitor, partial curve]",–
O=C(Cn1cccc1-c1nc(-c2ccc(F)cc2)no1)Nc1cccc(Cl)c1,inactive: -2.54%,–,–
COc1ccc(C(=O)N2CCC[C@H]2c2nc(-c3ccc(OC)c(OC)c3)no2)c(C)c1,–,"inconclusive: 39.8 µM [inhibitor, partial curve]",–
O=C(NC1CCCN(CCn2nc3n(c2=O)CCCC3)C1)c1ccccn1 (configuration not stated),inactive: -18.1%,–,–
CC(=O)Nc1ccc(CN2CCC3(CC(c4cccc(C(F)(F)F)c4)=NO3)C2)cc1 (configuration not stated),–,"inconclusive: 50.1 µM [inhibitor, partial curve, poor fit]",–
COC(=O)C1=CN(CC(=O)Nc2cccc(Cl)c2)S(=O)(=O)N=C1C,inactive: -0.212%,–,–
CCOCc1nc(C2CCCN(C(=O)c3ccnn3C)C2)no1 (configuration not stated),inactive: -9.21%,–,–
N#Cc1cccnc1-c1ccc(C(=O)N2CCC(NC(=O)Nc3ccc(Cl)cc3)CC2)cc1,–,"inconclusive: 44.7 µM [inhibitor, partial curve, poor fit]",–
COC1CCC12CCN(Cc1ccc(C(F)(F)F)cc1)CC2 (configuration not stated),inactive: -8.51%,–,–
COc1ccc(-c2cccc(C(=O)N3CCN(C(=O)c4ccc(C(F)(F)F)cc4)CC3)c2)nn1,–,"inconclusive: 56.2 µM [inhibitor, partial curve, poor fit]",–
COc1ccc(-c2ccnc3nc(-c4cccs4)nn23)c(F)c1,inactive: 2.09%,–,–
COCC1CN(Cc2sccc2C)CC12CCNCC2 (configuration not stated),inactive: -22.1%,–,–
C=CCn1cc2c3c(cccc31)[C@H](CC(C)C)N[C@H](C(=O)NCC1CC1)C2,–,"inconclusive: 100 µM [inhibitor, partial curve]",–
Cc1ccc(Nc2ccnc(N3CCC(NC(=O)C4CC4)CC3)n2)cc1,–,"inconclusive: 39.8 µM [inhibitor, partial curve, poor fit]",–
CC(C)(C)CC(=O)N1CCC(N2C(=O)C(O)C23CCCCC3)CC1 (configuration not stated),inactive: -14.3%,–,–

Structure (SMILES),"activity change, negative = cytotoxicity",Potency,outcome
CC(C(=O)NC1CCN(c2cnn(CC3CC3)c(=O)c2)CC1)c1ccccc1 (configuration not stated),–,"inconclusive: 50.1 µM [inhibitor, partial curve, poor fit]",–
CN(Cc1ccc(F)cc1)S(=O)(=O)c1cccs1,inactive: -26.7% [at 138 µM],–,–
NCc1ccccc1-c1cccs1,inactive: -8.29% [at 138 µM],–,–
COc1ccc(CN2CCCC23Cc2ccccc2CNC3=O)cc1 (configuration not stated),inactive: -0.894%,–,–
Cc1ccc(NC(=O)N(C)CC2CCOC2)cc1F (configuration not stated),inactive: 4.64%,–,–
COc1ccccc1CNC(=O)C1CCCN1Cc1cccc(-c2ccc(C)c(Cl)c2)c1 (configuration not stated),–,active: 39.8 µM,–
Cc1ccccc1C(=O)N1CCC2(CC1)CC(c1cccc(C(F)(F)F)c1)=NO2,–,"inconclusive: 50.1 µM [inhibitor, partial curve, poor fit]",–
O=C1CCN(C(=O)C2CCCCC2)CCCC(c2nc(-c3ccccc3)no2)CCN1 (configuration not stated),inactive: -29.8%,–,–
CNC(=O)c1cccc(-c2cnc(Nc3ccncc3)c3c2CCO3)c1,–,"inconclusive: 89.1 µM [inhibitor, partial curve, poor fit]",–
CC(C)=CCN1C[C@H](NC(=O)CCc2cccs2)C[C@H]1C(=O)NC(C)C,inactive: 0.842%,–,–
CCNC(=O)N1CC(C(=O)NCc2ccccc2)CC(c2ccc(F)c(C)c2)C1 (configuration not stated),–,"inconclusive: 50.1 µM [inhibitor, partial curve, poor fit]",–
Cc1cc(N2CCCN(c3nccc(-c4c(C)nn(C)c4C)n3)CC2)ccn1,–,"inconclusive: 50.1 µM [inhibitor, partial curve, poor fit]",–
CC(C)c1nnc(C2CN(C(=O)COc3ccc(Cl)cc3)CC23CCOCC3)o1 (configuration not stated),–,"inconclusive: 70.8 µM [inhibitor, single point]",–
COc1ccccc1-c1[nH]nc2ncc(-c3ccccc3C)nc12,–,active: 50.1 µM,–
Cc1noc(C)c1[S+](=O)([O-])N1CCC2(CC1)COc1ccccc1NC2=O,inactive: -15.5%,–,–
COc1ccccc1NC(=O)c1c(C)oc2c1CN(Cc1ccc(F)cc1)CC2,inactive: -23.9%,–,–
Cc1ccc(C2Cn3nnc(C(=O)N4CCC(C(=O)NC5CCCC5)CC4)c3CO2)cc1 (configuration not stated),–,–,inactive
O=S(=O)(Nc1cccn2ncnc12)c1ccc(C2CCCCC2)cc1,–,"inconclusive: 50.1 µM [inhibitor, partial curve, poor fit]",–
COC(=O)C1=C(C)N=C2SC=C(CC(=O)Nc3ccc(F)cc3)N2C1c1ccc(OC)cc1OC (configuration not stated),–,"inconclusive: 50.1 µM [inhibitor, partial curve, poor fit]",–
Cc1noc2ccc(-c3ccccc3OCc3ccccc3)nc12,–,"inconclusive: 50.1 µM [inhibitor, partial curve]",–
c1cncc(-c2ccnc(N3CCCOC(Cn4cccn4)C3)n2)c1 (configuration not stated),–,"inconclusive: 79.4 µM [inhibitor, partial curve]",–
Cc1ncccc1C(=O)N1CCC(Oc2ccc(-c3noc(-c4ccccc4)n3)cc2)C1 (configuration not stated),–,"inconclusive: 44.7 µM [inhibitor, partial curve, poor fit]",–
CC(=O)N1CCC(C2CCN(Cc3ccccc3F)C2)CC1 (configuration not stated),inactive: -2.29%,–,–

Structure (SMILES),"activity change, negative = cytotoxicity",Potency,outcome
O=C1CCN(S(=O)(=O)c2ccc3c(c2)CCC3)CCCC(c2nc(-c3cccnc3)no2)CCN1 (configuration not stated),–,"inconclusive: 28.2 µM [inhibitor, partial curve]",–
COc1ccc(-c2nnc3ccc(NCC(C)C)nn23)nc1,–,"inconclusive: 50.1 µM [inhibitor, partial curve, poor fit]",–
COc1cccc(C(=O)N2CCC3(C2)NC(=O)N(Cc2ccc(Cl)cc2)C3=O)c1 (configuration not stated),–,"inconclusive: 50.1 µM [inhibitor, partial curve, poor fit]",–
CC(C)n1ccnc1CN1CCC(CNC(=O)C(C)(C)C)CC1,–,"inconclusive: 50.1 µM [inhibitor, partial curve, poor fit]",–
CCCn1cnc2c1CN(S(=O)(=O)c1cccc3c(N(C)C)cccc13)[C@H](C(=O)OC)C2,–,"inconclusive: 56.2 µM [inhibitor, partial curve, poor fit]",–
Cc1ccc(-n2c(C3CCN(C(=O)c4cccc(N(C)C)c4)CC3)n[nH]c2=O)cc1,–,"inconclusive: 44.7 µM [inhibitor, partial curve, poor fit]",–
O=C(NCc1ccccc1)c1ccc2nc(-c3ccncc3)oc2c1,inactive: -13.7%,–,–
O=C(CC1CCOC2(CCN(Cc3cccc(F)c3)CC2)C1)NCc1ccncc1 (configuration not stated),inactive: 1.29%,–,–
CN1C[C@H](C(=O)Nc2nccs2)C[C@H]1c1cccc(C(F)(F)F)c1,–,"inconclusive: 100 µM [inhibitor, partial curve, poor fit]",–
O=C(NCc1ccco1)c1ccc2c(c1)N(C(=O)c1ccc(F)cc1)CC2,–,"inconclusive: 44.7 µM [inhibitor, partial curve, poor fit]",–
CC(C)CCN1CCC2(CC1)OC(=O)N(Cc1ccc(O)cc1)C2(C)c1ccccc1 (configuration not stated),–,active: 89.1 µM,–
O=C(NC1CCN(c2cc(-c3cccs3)[nH]n2)C1)c1cc(Cl)ccc1F (configuration not stated),–,"inconclusive: 50.1 µM [inhibitor, partial curve, poor fit]",–
CC(C)C(=O)N1CCCCCNC(=O)[C@@H]2CCCC[C@@H]21,inactive: 0.472%,–,–
O=C1NC(=NC2CCCCC2)C2(CCN(CC3CC3)C2)N1c1cccnc1 (configuration not stated),–,"inconclusive: 25.1 µM [inhibitor, full curve]",–
Cc1cnc(C(=O)NC2C[C@H]3CC[C@@H](C2)N3C(=O)CCC2CCCC2)cn1 (some centres not stated),–,"inconclusive: 35.5 µM [inhibitor, partial curve]",–
Cc1noc(-c2ccc(OC3CN(C(=O)Nc4cccc(F)c4)C3)cc2)n1,–,"inconclusive: 31.6 µM [inhibitor, partial curve]",–
COc1cccc(CN2C[C@@H](F)[C@@H](OCc3nc4ccccc4[nH]3)C2)n1,inactive: -23.2% [at 174 µM],–,–
CC(=O)N1CCNc2cc(-c3ccc(Oc4ccccc4)cc3)ncc2C1,–,"inconclusive: 50.1 µM [inhibitor, partial curve, poor fit]",–
Cc1nc(C(=O)N2CC[C@H](NS(=O)(=O)c3cccs3)C[C@H]2C(=O)N[C@H](Cc2c[nH]c3ccccc23)C(N)=O)cs1,inactive: 2.43%,–,–
COc1ccc(C(=O)N2CCc3ccc(C(=O)NCc4ccc5c(c4)OCO5)cc32)cc1,–,"inconclusive: 39.8 µM [inhibitor, partial curve]",–
CC(C)(CC(=O)O)CC(=O)N1Cc2[nH]cnc2C[C@H]1c1nc(Cc2ccccc2)no1,inactive: 0.201% [at 174 µM],–,–

# From PubChem BioAssay AID1345082 (National Center for Advancing Translational Sciences (NCATS), 2018)
